Source: PubChem BioAssay AID504466 (National Center for Advancing Translational Sciences (NCATS), 2011)
Among all 330,000 compounds or so, about 4,200 (1.3%) were called active. Inconclusive means that the source gave no clear call. Such entries were picked first, then a sample of the others. The call rests on the fitted dose curve; in most records, active means well fitted activation curve with a large enough effect; inconclusive means small, poorly fitted or top-dose-only effect; inactive means no such curve, though single readings can be large or run the other way. A potency beside an inconclusive call is a rough fit, not a confirmed value.

Test: qHTS screen for small molecules that induce genotoxicity in human embryonic kidney (HEK293T) cells expressing luciferase-tagged ELG1; further: nearly all actives have a fitted effect of over 60% in size
Settings: HEK293T ELG1-luciferase reporter, luminescence, 16 h; series mostly up to 46 µM
Summary of the method: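 HEK293T cells expressing luciferase-tagged ELG1 were treated with compound or DMSO for 16 hr at 37°C. Luciferase activity was then read after 30 min with ONE-Glo at room temperature; rising signal flags genetic stress.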
Potency means the concentration at half of the fitted maximal effect; tags describe the fitted curve by direction and shape.

SMILES | Potency
COC(=O)CSc1nnc(CNC(=O)c2cc(OC)cc(OC)c2)n1-c1ccc(F)cc1 | inactive
CCn1c2ccccc2c2cc(NC(=O)COC(=O)c3ccccc3O)ccc21 | inconclusive: 23.1 µM [activator, partial curve, poor fit]
Cc1[nH]n(C(N)=S)c(=O)c1N=Nc1ccc(Cl)cc1Cl | inconclusive: 14.6 µM [activator, partial curve, poor fit]
CCCC(NC(=S)NCC1CCCO1)C12CC3CC(CC(C3)C1)C2 (centres undefined) | inactive
O=C(CN1C(=O)NC2(CCCC2)C1=O)Nc1ccc(C(F)(F)F)cc1 | inactive
S=c1[nH]nc(-c2ccc(Cl)cc2Cl)n1-c1ccccc1 | inconclusive: 16.4 µM [activator, partial curve]
Cc1ccc(Nc2nc(-c3ccc(O)cc3O)cs2)nc1 | inconclusive: 2.59 µM [activator, full curve]
COC(=O)c1[nH]c2ccc(Cl)cc2c1NC(=O)c1ccccc1[N+](=O)[O-] | inconclusive: 29.1 µM [activator, partial curve, poor fit]
Cc1ccccc1OCC(=O)N=Nc1c(O)n(C)c2ccccc12 | inconclusive: 20.6 µM [activator, partial curve, poor fit]
C[C@@H]1C(NC(=O)c2ccccc2)CC2CC1C2(C)C (some centres undefined) | inactive
CSc1ccccc1OCc1cc(C(=O)N2CCC(Oc3cccnc3)CC2)no1 | inactive
Cc1ccc(C)c(OCCn2cc(/C=C(\C#N)C(=O)NCc3ccco3)c3ccccc32)c1 | inconclusive: 16.4 µM [activator, partial curve, poor fit]
CCCCOc1ccc(CSc2nncn2N)cc1 | inconclusive: 16.4 µM [activator, partial curve, poor fit]
CCc1cc(C(=O)O)c(NC(=O)c2cc(OC)c(OC)c(OC)c2)s1 | inconclusive: 13 µM [activator, partial curve, poor fit]
CCOc1ccc(N(CC(=O)NCc2ccccc2OC)S(C)(=O)=O)cc1 | inconclusive: 14.1 µM [activator, single point]
Cc1ccc(CNC(=O)c2ccc(NC3=NC4CS(=O)(=O)CC4S3)cc2)cc1 (centres undefined) | inconclusive: 25.9 µM [activator, single point]
COc1ccc(/C=N/Nc2cc(C)nc(-n3nc(C)cc3C)n2)c(OC)c1 | inconclusive: 29.1 µM [activator, single point]
O=C(CCC1CCCN(C(=O)Cc2cccc(F)c2)C1)N1CCN(c2ccccn2)CC1 (centres undefined) | inconclusive: 9.2 µM [activator, partial curve, poor fit]
CCCC(=O)Nc1nc(C(=O)OCC)cs1 | inactive
COc1ccc(C(=O)NCc2nnc(SCC(=O)NCc3ccco3)o2)cc1 | inactive
O=[N+]([O-])c1ccc(/C=N\NS(=O)(=O)c2ccc(F)cc2)o1 | inconclusive: 32.6 µM [activator, partial curve, poor fit]
O=C(N/N=C/c1ccncc1)c1ccccn1 | inconclusive: 18.3 µM [activator, single point]
N#Cc1c(N2CCN(C(=O)c3ccco3)CC2)nc(-c2ccccc2)c2c1CCCC2 | inactive

SMILES | Potency
CCCCC[C@@H]1C=C(C(=O)O)[C@H](c2ccc(Cl)cc2)N1S(=O)(=O)c1ccc(C)cc1 | inactive
COc1cc2c(cc1OC)CN(C(=O)C(CCSC)NS(=O)(=O)c1ccc(C)cc1)CC2 (centres undefined) | inactive
COc1ccc(NC(=O)c2cc3c([nH]c4ccccc43)c(C)n2)cc1 | inactive
CCCN1CCN(C(=O)Nc2ccc(C(=O)OCC)cc2)CC1 | inconclusive: 18.4 µM [activator, single point]
COc1ccc(C2=NOC(C(=O)NCc3cccs3)C2)cc1 (centres undefined) | inconclusive: 16.4 µM [activator, single point]
COc1ccc(OC(=O)c2cc3ccccc3o2)cc1 | inactive
COc1ccc(/C=N/Nc2ccc([N+](=O)[O-])cc2)cc1Cn1cc([N+](=O)[O-])cn1 | inconclusive: 20.6 µM [activator, partial curve, poor fit]
Nc1ccc(C(=O)Nc2nccs2)cc1 | inconclusive: 16.4 µM [activator, partial curve, poor fit]
CCC(=O)Nc1ccc(NC(=O)CSc2nnc(-c3ccco3)n2CC)cc1 | inactive
COc1cc2c(cc1NC(=O)c1ccncc1)oc1ccccc12 | inconclusive: 11.6 µM [activator, partial curve, poor fit]
COc1ccc2cc(/C=C/C(=O)c3ccco3)c(Cl)nc2c1 | inconclusive: 16.4 µM [activator, partial curve, poor fit]
CCOc1ccc(CCNC(=O)c2ccc(C)c(NC3=NC4CS(=O)(=O)CC4S3)c2)cc1 (centres undefined) | inactive
COc1ccc(/C=N/OCc2ccccc2C#N)c(OC)c1 | inconclusive: 14.6 µM [activator, partial curve, poor fit]
COc1cccc(C2Nc3ccccc3C(=O)N2c2ccc(F)cc2)c1O (centres undefined) | inconclusive: 16.4 µM [activator, partial curve, poor fit]
CCOc1ccc(C(=O)CCCC(=O)c2ccc(OCC)cc2)cc1 | inconclusive: 18.3 µM [activator, partial curve, poor fit]
CC(C)Sc1nc2ccc(Br)cc2[nH]1 | inconclusive: 16.4 µM [activator, partial curve, poor fit]
CN(C)C=NC1=NN(c2cccc(C(F)(F)F)c2)CC1 | inconclusive: 23.1 µM [activator, single point]
COc1ccccc1-c1cc(C(=O)N2CCCc3ccccc32)no1 | inactive
O=C(CSc1nc(-c2ccco2)cc(C(F)(F)F)n1)NCCCn1ccnc1 | inconclusive: 23.1 µM [activator, single point]
CCCCc1nc2cc(C(=O)NC(C)c3cnn(C)c3)ccc2o1 (centres undefined) | inconclusive: 20.6 µM [activator, single point]
O=C(Nc1cc2c3c(c1)CC(=O)N3CCC2)c1ccc(Cl)cc1 | inconclusive: 23.1 µM [activator, partial curve, poor fit]
CCc1nnc(NC(=O)CSc2ccc(-c3ccc(F)cc3)nn2)s1 | inconclusive: 25.9 µM [activator, partial curve, poor fit]
Cc1cc(/C=N/NC(=O)c2cccs2)c(C)n1-c1ccccc1 | inconclusive: 0.1 µM [activator, full curve, poor fit]

SMILES | Potency
Cn1c(-c2ccc3ccccc3n2)nc2cnccc21 | inconclusive: 5.8 µM [activator, partial curve, poor fit]
N/C(=N\OC(=O)c1cccc(Cl)c1)c1cccnc1 | active: 10 µM
C=CCn1cnc2c(NCc3ccccc3)ncnc21 | inconclusive: 14.6 µM [activator, partial curve]
O=C(O)c1ccc(N/N=C/c2cn(Cc3ccc(F)cc3)c3ccccc23)cc1 | active: 11.6 µM
CCn1ccnc1CNC(=O)C1CCC(=O)N(Cc2ccccc2F)C1 (centres undefined) | inactive
Cc1nnc(NC(=O)C2COc3ccccc3O2)s1 (centres undefined) | inconclusive: 10.3 µM [activator, partial curve]
CCOC(=O)N1CCc2c(sc(NC(=O)CN3CCN(C)CC3)c2C(=O)Nc2ccccc2)C1 | inconclusive: 2.06 µM [activator, partial curve, poor fit]
COc1ccc(-n2c(SCC(=O)Nc3ccc(C(N)=O)cc3)nc3ccccc3c2=O)cc1OC | inconclusive: 20.6 µM [activator, partial curve, poor fit]
CCC1Sc2ccc(S(=O)(=O)N3CCN(c4ccccc4)CC3)cc2NC1=O (centres undefined) | inactive
Oc1cccc2ccc(/C=C/c3ccccc3Br)nc12 | inconclusive: 23.1 µM [activator, single point]
COc1ccc2cc(C(=O)NCc3ccccc3)c(=O)oc2c1 | inconclusive: 20.6 µM [activator, single point]
C=CCn1cccc(C(=O)Nc2ccc(Cl)cc2)c1=O | inconclusive: 23.1 µM [activator, single point]
CCCCOC(=O)Cn1c2ccc(OC)cc2c2nc3ccccc3nc21 | inconclusive: 23.1 µM [activator, partial curve, poor fit]
Cc1ccc2ncc(NC(=O)c3ccc(F)cc3)c(=O)n2c1 | inconclusive: 18.4 µM [activator, partial curve]
CC12CCC(C(=O)Nc3nc4ccccc4s3)(OC1=O)C2(C)C (centres undefined) | inconclusive: 8.2 µM [activator, partial curve, poor fit]
CSCC[C@H](NC(=O)N1CCn2c1nc1ccccc12)C(=O)NC1CC1 | inactive
CCCc1ccc(OCc2ccc(C(=O)O)o2)c(OC)c1 | inconclusive: 1.84 µM [activator, partial curve]
CC(=O)Nc1ccc(S(=O)(=O)N[C@H](C(=O)O)C(C)C)cc1 | inactive
Cc1ccc(C(=O)NCC(=O)Nc2ncccc2C)s1 | inactive
O=C1NC(c2ccccc2Cl)=N/C1=C/c1ccco1 | inconclusive: 20.6 µM [activator, single point]
COc1cccc(C(=O)OCC(=O)c2c[nH]c3ccccc23)c1O | inconclusive: 18.3 µM [activator, partial curve, poor fit]
O=C(COc1coc(CN2CCc3ccccc3C2)cc1=O)Nc1ccc(F)cc1F | inactive
CCOC(=O)c1ccc(NC(=O)CCS(=O)(=O)c2cccc3nonc23)cc1 | inconclusive: 0.259 µM [activator, single point]
